The list shows a part of the results. Read counts after selection give these values, which scatter widely.

In one assay the target is MAP1LC3B_ATG8__Q9GZQ8_2_119. Briefly: mean normalised NGS count of phage-displayed peptide after selection on bait (% of reads); baits are purified protein domains named by gene / domain / UniProt id / residues; peptides come from disordered regions of human proteins; higher = stronger enrichment / binding. As to conditions: replicate selections in which the peptide was seen: 3.
As to DPLAGTVFVDFGFQLL [ABCB4 1087-1102 wt], the “mean normalised NGS count” value is 0.0146.

MESDNASGGDDDWTHL [SQSTM1 326-341 wt]: the “mean normalised NGS count” value turned out to be 0.0111.

Turning to WTHLSSKEVDPSTGEL [SQSTM1 338-353 wt], the “mean normalised NGS count” value is 0.0724.

As for VLEDEVYEILRDTSEE [BRCA2 290-305 mut P51587.T298_V300delinsILR], the “mean normalised NGS count” value worked out at 0.0111.

For a further assay, the target named is KPNA4_Arm__O00629_68_487. The description is as above. Conditions: replicate selections in which the peptide was seen: 6.
KPNA4_Arm__O00629_68_487, sequence (chain, as listed by the source): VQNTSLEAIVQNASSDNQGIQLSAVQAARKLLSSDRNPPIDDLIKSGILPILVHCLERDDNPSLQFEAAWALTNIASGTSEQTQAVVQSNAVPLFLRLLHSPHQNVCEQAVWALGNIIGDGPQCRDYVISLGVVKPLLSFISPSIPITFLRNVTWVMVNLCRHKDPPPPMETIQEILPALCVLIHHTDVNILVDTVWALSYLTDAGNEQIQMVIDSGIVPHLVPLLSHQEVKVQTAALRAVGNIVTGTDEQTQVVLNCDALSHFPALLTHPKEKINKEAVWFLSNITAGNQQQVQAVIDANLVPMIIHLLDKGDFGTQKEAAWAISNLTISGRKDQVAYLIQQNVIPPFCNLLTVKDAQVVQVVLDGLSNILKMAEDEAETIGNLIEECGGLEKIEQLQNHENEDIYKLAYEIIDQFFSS
Take PESKVAKLDTSQWPVL [DKC1 40-55 mut O60832.L54V]: the “mean normalised NGS count” value was 8.62.

Turning to EKRRWNEEPWESPAQV [RECQL4 260-275 wt], the “mean normalised NGS count” value came out at 2.53.

Consider NLLDGPPNPKRAKLSS [CREBBP 4-19 wt], for which the “mean normalised NGS count” value was 0.732.

As to LDLDDRWQFKRSRLLD [ABRAXAS1 349-364 wt], the “mean normalised NGS count” value is 2.07.

With MKRPWQAQVEPQLLKT [GALT 49-64 mut P07902.G55C], the “mean normalised NGS count” value stood at 4.47.

For the molecule MKRPWQGQVEPQLLKT [GALT 49-64 wt], the “mean normalised NGS count” value worked out at 8.91.

Regarding DVEHGGKRSRLTPVSP [SQSTM1 258-273 wt], the “mean normalised NGS count” value was 2.02.

The next assay concerns the target MAP1LC3B_ATG8__Q9GZQ8_2_119. The description is as above. Conditions: replicate selections in which the peptide was seen: 6.
For VANWTDLENSIVSVER [ABCC6 1220-1235 mut O95255.R1221C], the “mean normalised NGS count” value came out at 0.413.

For the molecule APLDESNSYEHLTLSD [CENPF 1382-1397 wt], the “mean normalised NGS count” value turned out to be 0.743.

In the case of PHSDDAGDYEQLFSST [SLX4 975-990 wt], the “mean normalised NGS count” value was 0.0782.

In the case of LHSDDAGDYEQLFSST [SLX4 975-990 mut Q8IY92.P975L], the “mean normalised NGS count” value amounted to 0.257.

On to DAGDYEQLFSSTQGEI [SLX4 979-994 wt], for which the “mean normalised NGS count” value is 0.151.

EVYEILRDTSEEDSFS [BRCA2 294-309 mut P51587.T298_V300delinsILR]: the “mean normalised NGS count” value turned out to be 0.0836.

Regarding WTDLENSIVSVEWMQD [ABCC6 1223-1238 mut O95255.R1235W], the “mean normalised NGS count” value is 2.02.

For the molecule SMPNVLEDEVYEILRD [BRCA2 286-301 mut P51587.T298_V300delinsILR], the “mean normalised NGS count” value was 2.1.

The target of another assay is KPNA4_Arm__O00629_68_487. The description is as above. Conditions: replicate selections in which the peptide was seen: 5.
For the molecule PESKVAKLDMSQWPLL [DKC1 40-55 mut O60832.T49M], the “mean normalised NGS count” value worked out at 0.375.

Consider LKRTWPLEVPETEPML [FBXO7 8-23 mut Q9Y3I1.T22M], for which the “mean normalised NGS count” value amounted to 0.216.

For VYIDRVRSLGTENAGL [LMNA 44-59 mut P02545.E53G], the “mean normalised NGS count” value was found to be 0.211.

Consider EVDINVEHGGKRSRLT [SQSTM1 254-269 mut Q13501.D258N], for which the “mean normalised NGS count” value is 0.263.

For MSSAKSARIETSASVL [NBN 475-490 mut O60934.L489V], the “mean normalised NGS count” value is 0.116.

Consider EAERLVKYREANGLPI [NDUFB11 121-136 wt], for which the “mean normalised NGS count” value was 4.05.

Another assay deals with Intersectin-1_SH3_5_Q15811_1155_1214. The assay is described as above. Conditions: replicate selections in which the peptide was seen: 5.
On to PLVPGRDRGQELRVVL [TYK2 626-641 wt], for which the “mean normalised NGS count” value came out at 1.13.

The next assay addresses MAP1LC3B_ATG8__Q9GZQ8_2_119. Described as above. As to conditions: replicate selections in which the peptide was seen: 5.
Turning to LPLHATDFEVLSTKFE [ZNF469 3011-3026 mut Q96JG9.R3014H], the “mean normalised NGS count” value came to 0.0702.

Consider TAIGDKNRWAVLALEH [PTCH1 1106-1121 mut Q13635.R1114W], for which the “mean normalised NGS count” value amounted to 0.0295.

Consider ELADDNGYHWDTSDWM [FAT1 4374-4389 mut Q14517.S4375L], for which the “mean normalised NGS count” value stood at 0.0754.

Take NTHLLPLRATDFEVLS [ZNF469 3007-3022 wt]: the “mean normalised NGS count” value was determined as 0.0228.

Regarding DAGDYEQLFSSTQEEI [SLX4 979-994 mut Q8IY92.G992E], the “mean normalised NGS count” value stood at 1.5.

For the molecule NPRDTEDVPWITLNSS [BRCA1 363-378 wt], the “mean normalised NGS count” value was found to be 0.0247.

LTPSQKAEITELFTIL [BRCA2 1103-1118 mut P51587.S1115F]: the “mean normalised NGS count” value stood at 0.614.

The next assay addresses Intersectin-1_SH3_5_Q15811_1155_1214. The assay is described as above. Conditions: replicate selections in which the peptide was seen: 3.
For the molecule GPKIVPRELAEARGVV [SLC29A3 437-452 mut Q9BZD2.T449R], the “mean normalised NGS count” value was 0.215.

For a further assay, the target named is KPNA4_Arm__O00629_68_487. Described as above. As to conditions: replicate selections in which the peptide was seen: 4.
As for PESKVAKLDTSQWPLL [DKC1 40-55 wt], the “mean normalised NGS count” value worked out at 6.7.

Take ESPKPAKMPKIVDLLA [RHBDF2 176-191 mut Q6PJF5.P189L]: the “mean normalised NGS count” value was 1.05.

FQGTESPKPAKMPKIV [RHBDF2 172-187 wt]: the “mean normalised NGS count” value worked out at 0.0192.

Regarding SVARLTKEKKALQEAH [MYH7B 1037-1052 wt], the “mean normalised NGS count” value turned out to be 0.714.

For KVPRLKEEHGIELSSP [CHD2 1351-1366 wt], the “mean normalised NGS count” value is 0.154.

For a further assay, the target named is KPNB1_Heat_1_Q14974_127_876. Described as above. Conditions: replicate selections in which the peptide was seen: 2.
KPNB1_Heat_1_Q14974_127_876, sequence (chain, as listed by the source): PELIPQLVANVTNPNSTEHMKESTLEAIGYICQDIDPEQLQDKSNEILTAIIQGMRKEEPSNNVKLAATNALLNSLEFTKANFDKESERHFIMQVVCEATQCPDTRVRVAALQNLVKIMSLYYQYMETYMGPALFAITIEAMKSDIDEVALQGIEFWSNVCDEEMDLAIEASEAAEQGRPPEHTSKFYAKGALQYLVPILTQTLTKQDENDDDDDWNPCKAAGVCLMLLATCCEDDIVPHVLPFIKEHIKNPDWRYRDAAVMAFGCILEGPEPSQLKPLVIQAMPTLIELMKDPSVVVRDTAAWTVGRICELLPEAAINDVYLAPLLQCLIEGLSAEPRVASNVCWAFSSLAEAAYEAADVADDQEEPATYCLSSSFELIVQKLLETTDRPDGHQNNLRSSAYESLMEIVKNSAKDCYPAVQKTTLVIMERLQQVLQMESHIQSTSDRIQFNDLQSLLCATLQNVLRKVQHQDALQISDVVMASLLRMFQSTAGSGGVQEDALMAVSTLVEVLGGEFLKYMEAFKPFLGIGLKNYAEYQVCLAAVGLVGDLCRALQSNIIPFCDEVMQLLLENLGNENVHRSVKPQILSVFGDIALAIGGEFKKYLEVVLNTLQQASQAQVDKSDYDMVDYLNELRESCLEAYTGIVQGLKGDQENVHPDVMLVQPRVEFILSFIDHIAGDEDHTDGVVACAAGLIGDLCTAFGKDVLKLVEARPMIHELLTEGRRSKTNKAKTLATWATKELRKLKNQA
Turning to EIRQDLLDFLQDLLAH [RYR1 2026-2041 mut P21817.H2035L], the “mean normalised NGS count” value came out at 53.4.

The target in the next assay is MAP1LC3B_ATG8__Q9GZQ8_2_119. Described as above. As to conditions: replicate selections in which the peptide was seen: 2.
In the case of TEHSTVGLAQQWVQLD [SPTAN1 2283-2298 mut Q13813.D2295V], the “mean normalised NGS count” value worked out at 0.0056.

For LRSLATHTLHALTPLL [FUZ 403-418 wt], the “mean normalised NGS count” value was found to be 1.18.

Regarding NEDGFSPNNDDMFVDL [MED13L 2014-2029 wt], the “mean normalised NGS count” value worked out at 0.0309.

As to YEHLTLSDKEVQMHFA [CENPF 1390-1405 wt], the “mean normalised NGS count” value is 0.00502.

For EYTILEGKLQKTLIDL [CEP120 704-719 wt], the “mean normalised NGS count” value was determined as 0.0539.

A further assay has as its target KPNA4_Arm__O00629_68_487. The assay is described as above. Conditions: replicate selections in which the peptide was seen: 2.
Regarding GATEGTRSGLEELYWL [NRL 60-75 mut P54845.P67S], the “mean normalised NGS count” value was 0.271.

For PESKVAKLDTYQWPLL [DKC1 40-55 mut O60832.S50Y], the “mean normalised NGS count” value stood at 0.0607.

Take RLALAQGLGLWLGALA [PKD1 8-23 mut P98161.L13Q]: the “mean normalised NGS count” value amounted to 0.815.

Take MLGDLLASDATTGSGS [ACVRL1 173-188 mut P37023.D179A]: the “mean normalised NGS count” value worked out at 0.884.

In the case of MVAGMLELREEKSEDQ [MECP2 1-16 mut P51608.G7E], the “mean normalised NGS count” value came to 0.0863.

As for KFLEEVTRVSQEHPVV [CPS1 1150-1165 mut P31327.A1155V], the “mean normalised NGS count” value came out at 0.215.

For AVMSRLPHHSESGQEH [MARVELD2 488-503 mut Q8N4S9.R500G], the “mean normalised NGS count” value turned out to be 4.07.

The target of another assay is MAP1LC3B_ATG8__Q9GZQ8_2_119. The description is as above. Conditions: replicate selections in which the peptide was seen: 4.
Consider KWVDLSSQVGQHLQLH [MYBPC3 195-210 mut Q14896.K202Q], for which the “mean normalised NGS count” value came out at 0.047.

As for YSERHGWGYLVPGWRD [POLG 614-629 mut P54098.R627W], the “mean normalised NGS count” value was found to be 0.058.

For the molecule DDTWDNVYYYDEEGGG [CDH1 746-761 mut P12830.R749W], the “mean normalised NGS count” value stood at 0.0142.

In the next assay the target is OXSR1___O95747_434_527. The assay is described as above. As to conditions: replicate selections in which the peptide was seen: 2.
OXSR1___O95747_434_527, sequence (chain, as listed by the source): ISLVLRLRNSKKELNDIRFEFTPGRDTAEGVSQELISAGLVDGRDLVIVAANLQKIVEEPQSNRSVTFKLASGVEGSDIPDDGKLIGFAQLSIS
Turning to MLGDLLASDATTGSGS [ACVRL1 173-188 mut P37023.D179A], the “mean normalised NGS count” value came to 0.721.

In a further assay the target is KPNA4_Arm__O00629_68_487. The assay is described as above. As to conditions: replicate selections in which the peptide was seen: 7.
Regarding EPSEKRTRLEEEIVEQ [CDC45 152-167 wt], the “mean normalised NGS count” value stood at 8.12.

Staying with this assay, now noted: replicate selections in which the peptide was seen: 3.
On to LKRTWPLEVPETEPTL [FBXO7 8-23 wt], for which the “mean normalised NGS count” value is 0.0689.

Source of the values: the supplement of paper PMC11369174, “Proteome-scale characterisation of motif-based interactome rewiring by disease mutations” (Molecular Systems Biology, 2024).
